Hit rate of the full screen: of about 50,000 compounds, about 800 (1.6%) showed an effect of 50% or more. Some of the results follow.
What follows are compounds tested against Bcl-2-like protein 10 (Homo sapiens) (UniProt Q9HD36) (assay: TR3 peptide-Bcl-B binding displacers, biochemical primary FP assay, phenotype converters (AID 1240;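 note: 0% = Bcl-B with tracer peptide and DMSO and 100% = tracer peptide lacking Bcl-B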)). Details: GST-Bcl-B / FITC-TR3 peptide fluorescence polarization; stronger effect = higher value; compound at 3.75 mg/L.
Sequence of UniProt Q9HD36 (Q9HD36 whole entry, looked up): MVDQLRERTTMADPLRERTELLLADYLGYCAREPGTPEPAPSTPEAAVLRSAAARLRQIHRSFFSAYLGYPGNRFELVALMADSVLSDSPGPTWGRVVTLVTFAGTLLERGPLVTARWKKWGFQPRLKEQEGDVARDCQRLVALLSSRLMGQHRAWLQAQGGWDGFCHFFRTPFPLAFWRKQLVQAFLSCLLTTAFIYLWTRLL

Structure (SMILES)	displacement [%]
CCC(C)NC(=O)CN(c1ccccc1)S(=O)(=O)c1ccccc1[N+](=O)[O-] (stereo not drawn)	-8
C/C(=N\N=C1\NC(=O)C(CC(=O)Nc2ccccc2C(F)(F)F)S1)c1ccccc1 (stereo not drawn)	9.6
CCOc1ccc(N(CC(=O)NCc2ccc(OC)cc2)S(=O)(=O)c2ccc(Br)cc2)cc1	-10
O=C(/C=C/c1ccccc1)Nc1cccc(Br)c1	-8.7
O=C(/C=C/c1ccc(Cl)cc1)Nc1ccccc1C(F)(F)F	8.8
O=C(c1ccc(Cl)c(Cl)c1)N1CCN(c2ccc([N+](=O)[O-])cc2Cl)CC1	-12.8
Cc1ccc(C(=O)c2ccc(N3CCN(C(=O)c4cccc(F)c4)CC3)c(F)c2)cc1C	1.6
CN(C)c1ccc(/C=C2/SC(N=Nc3c(O)[nH]c4ccccc34)=NC2=O)cc1	7.9
CCOc1ccccc1NC(=O)CN(c1ccccc1Cl)S(C)(=O)=O	-5.8
Cc1ccc(/C=C2/SC(=S)N(CCC(=O)N3c4ccccc4Sc4ccc(Cl)cc43)C2=O)cc1	9.7
COc1ccc(S(=O)(=O)N(CC(=O)Nc2ccccc2OC)Cc2ccccc2)cc1	-3.9
COc1ccc(OC)c(N(CC(=O)NCCc2ccc(OC)c(OC)c2)S(=O)(=O)c2ccc(OC)c(OC)c2)c1	10
COc1cc(C=C2C(=O)NC(=O)NC2=O)cc(Br)c1OCc1ccc([N+](=O)[O-])cc1	15.4
C=C1CSc2nc(=O)c3c(C)c(C)sc3n21	1.7
COc1ccc2c(c1)-c1c(ssc1=Nc1ccc(S(N)(=O)=O)cc1)C(C)(C)N2	-14.3
CCOc1ccc(N2C(=O)CC(NCc3ccc(Cl)cc3Cl)C2=O)cc1 (stereo not drawn)	-10.6
CCOC(=O)c1c(NC(=O)c2ccc(Cl)cc2)sc(C(=O)Nc2ccccc2C(F)(F)F)c1C	18.7
CN1C(=O)NC(=O)/C(=C/c2ccc(-c3ccc(Cl)c(Cl)c3)o2)C1=O	-7.2
CC(C)CCNC1=CC(=O)CC(c2ccccc2)C1 (stereo not drawn)	11.8
CCOC(=O)c1c(NC(=O)COc2ccccc2)sc2c1CCN(C(=O)OCC)C2	-23
Cc1cc(Cl)ccc1OCC(=O)Nc1ccccc1[N+](=O)[O-]	-14
COC(=O)CC(C(=O)OC)C(C(=O)OC)C(=O)OC (stereo not drawn)	11.3
O=C1/C(=C/c2c(Cl)cccc2Cl)SC(=S)N1CC1CCCO1 (stereo not drawn)	-3

Structure (SMILES)	displacement [%]
O=C1CC(c2ccc(F)cc2)c2cc(Br)c3ccccc3c2N1 (stereo not drawn)	-9
COc1cc(OC)cc(C(=O)Nc2cccc(S(N)(=O)=O)c2)c1	2
O=C(CCC(=O)N/N=C/c1ccc(O)cc1)N/N=C\c1ccc(O)cc1	0.2
O=C(/C=C\c1ccccc1)Nc1ccc2c3c(cccc13)CC2	12.4
O=C(CN1C(=O)/C(=C/c2cccc(Br)c2)SC1=S)Nc1ccc2c(c1)OCO2	11.4
O=C(c1cc2n(n1)C(C(F)(F)F)CC(c1cccs1)N2)N1CCN(C(c2ccccc2)c2ccccc2)CC1 (stereo not drawn)	6.7
O=C(NCC(O)c1ccccc1)c1ccc(CSc2ccc(Cl)cc2)cc1 (stereo not drawn)	-14.3
CC(C)(C)CC(C)(C)NC(=O)c1ccc2nccnc2c1	14.3
C=CCOCC(O)CSCCCC (stereo not drawn)	-4.5
O=C1CCCc2c1[nH]c1ccc(Br)cc21	3.6
CCN(CC)c1ccc(NC(=O)c2cncc(Br)c2)cc1	84.2
CCOc1ccc(Cc2c(C)nc3c(C)cccc3c2Cl)cc1	-5.7
COc1ccc(C2=Nc3ccc(Br)cc3C(c3ccccc3)N2CC(=O)NN)cc1 (stereo not drawn)	14
Cc1ccc(OCC(=O)O/N=C(\N)c2ccccn2)c(C)c1	-5.1
CCCOc1cccc(NC(=O)c2ccc(C)o2)c1	0.8
O=C(c1ccc([N+](=O)[O-])cc1)N1CCN(c2nc(-c3ccccc3)c3cc(Cl)ccc3n2)CC1	17.5
Cc1cc(=O)n2/c(=C\c3ccc(Br)cc3)c(=O)[nH]c2n1	-10.2
C=CCc1cc(/C=C2/C(=O)NC(=O)N(c3ccc(C)cc3)C2=O)cc(OC)c1O	-11.8
Cc1ccc([N+](=O)[O-])cc1NC(=O)COc1cccc(C)c1C	1.9
Cc1nc(SCC(=O)O)[nH]c(=O)c1Oc1ccccc1	-5
CC(C)OC(=O)c1c(-c2ccccc2)csc1NC(=O)C1C2CCC(C2)C1C(=O)O (stereo not drawn)	-3.8
COc1ccc(/C=C2\SC(=S)N(c3cccc(Br)c3)C2=O)cc1	3.9
O=C(Nc1ccccc1)Nc1nnc(CSCc2ccccc2F)s1	7.8

Structure (SMILES)	displacement [%]
COc1ccc(-n2c(=O)c3c4c(sc3n3c(SC)nnc23)COC(C)(C)C4)cc1	6.2
COc1cccc(OCCn2cc(C=C3C(=O)NC(=S)NC3=O)c3ccccc32)c1	36.6
Cc1ccc(C(=O)N(C(=O)c2ccc(C)c(C)c2)c2ccccn2)cc1C	7.1
O=C(CNc1cccc(Br)c1)c1ccc([N+](=O)[O-])cc1	2.1
CCOC(=O)c1c(NC(=O)c2cccs2)sc(C(=O)Nc2ccccc2C(F)(F)F)c1C	-10.1
COC(=O)CN(c1ccc(C)c(Cl)c1)S(C)(=O)=O	5.5
Nc1ccc(-c2cc(C(=O)O)c3ccccc3n2)cc1	21.8
COC(=O)C1=C(C)N(c2ccc(F)cc2)C(=O)/C1=C\c1ccccc1O	9.4
Cc1cc(Cl)ccc1OCC(O)CNC(C)C (stereo not drawn)	1.1
O=C1NC(=S)S/C1=C/c1ccc(OCc2ccc(F)cc2)c(Br)c1	20.2
CCc1cc2c(-c3ccccc3)cc(=O)oc2cc1OC(C)C(=O)O (stereo not drawn)	10.7
Cc1cc(Cl)ccc1OCc1nc(-c2cccc([N+](=O)[O-])c2)no1	-6
O=C1CCCN1CCCN=Cc1c(O)[nH]c(=O)[nH]c1=O	-13.2
COc1cc(C=Nc2ccc(S(N)(=O)=O)cc2)ccc1O	2
COC(C(=O)N1CCCCCC1)(c1ccccc1)c1ccccc1	16.8
C=CCn1c(SCC(=O)NCc2ccco2)nc2sc3c(c2c1=O)CCCC3	4.4
Oc1ccc(Br)cc1CN1CCN(Cc2cccc3ccccc23)CC1	5.8
CC(C)(C#N)NCCCCCCNC(C)(C)C#N	1.5
C#CCSc1nc2sc3c(c2c(=O)[nH]1)CCCC3	-7.5
NC(=O)c1cccc(NC(=O)/C=C/C(=O)O)c1	-3.4
CCOC(=O)c1c(-c2ccccc2)c[nH]c1C	4.3
Cc1ccc(OCC(=O)Nc2ccc(O)c(-c3nc4cc(C)c(C)cc4o3)c2)cc1C	5

— PubChem BioAssay AID1240 (Sanford-Burnham Center for Chemical Genomics, 2008)
